This is one part of the list.
target: T1, OsWOX13 (Oryza sativa, UniProt Q5QMM3 1-267); assay: protein-binding microarray (RPBM); PBS, 2% BSA, 51.3 ng/ul salmon testes DNA, 50 uM zinc acetate, 200 nM TF, 25 C, 1 h; high values mean tight binding; details: protein: recombinant; tags: N-terminal polyhistidine and DsRed monomer fusion (pET32a); label: CyDye5-dUTP incorporated in the synthesized complementary strand; 3' TTTTT single-stranded linker to array surface; dsDNA, one strand shown
T1 sequence: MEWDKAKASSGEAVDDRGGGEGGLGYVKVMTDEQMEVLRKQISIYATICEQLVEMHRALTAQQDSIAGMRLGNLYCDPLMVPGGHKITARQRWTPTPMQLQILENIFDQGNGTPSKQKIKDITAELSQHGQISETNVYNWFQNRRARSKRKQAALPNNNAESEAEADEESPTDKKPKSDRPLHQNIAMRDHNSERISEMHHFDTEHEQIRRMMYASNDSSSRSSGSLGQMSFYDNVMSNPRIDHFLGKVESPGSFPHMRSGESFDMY
Procedure, shortened: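 The binding signal is fluorescence intensity per array feature (arbitrary units). Readings came from an Axon 4000B scanner after a washed, 2% BSA-blocked, double-stranded custom Agilent array had been incubated for 1 h at 25 °C with 200 nM protein and 50 µM zinc acetate. The protein was a Ni–NTA-purified transcription factor fused N-terminally to polyhistidine and DsRed, expressed in E. coli BL21-CodonPlus.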

Sequence | binding signal
CAAATTTATTATTAAGATTATCCGAAAACAAATCCTAGCCCGGAGTCACCTAGTGCAG | 6740 fluorescence intensity (a.u.)
TTGTGTTTAGATTGCTAAACACTCACACATATATACAAGTCGGAGTCACCTAGTGCAG | 3230 fluorescence intensity (a.u.)
AAAACTAATTTCATAAATGAGAGCTAATCCGCGAGACGAACGGAGTCACCTAGTGCAG | 12000 fluorescence intensity (a.u.)
TAAATATTGACATGAAATCATATTAACGTTGGTCAAATATCGGAGTCACCTAGTGCAG | 10400 fluorescence intensity (a.u.)
ACTCAAATTTAAACTTATCATGTGACAGGGCAAAGGAGGACGGAGTCACCTAGTGCAG | 12300 fluorescence intensity (a.u.)
CTACATACTATTTAAATTTAAATTATCATAAACCACATTACGGAGTCACCTAGTGCAG | 10500 fluorescence intensity (a.u.)
ATGATAACTGATTGCAATAAGGTTAGGATGTTGTCACACCCGGAGTCACCTAGTGCAG | 52900 fluorescence intensity (a.u.)
ATTGATTACCAGTTTGTTGTTTAGATTTGGTAATAGGGAACGGAGTCACCTAGTGCAG | 51200 fluorescence intensity (a.u.)
CCTTAATTAACTAACATTCAGTCAGTTAGTCACCGGATAGCGGAGTCACCTAGTGCAG | 52600 fluorescence intensity (a.u.)
TTTAAAATTTAATATCACTAATTATAGTTACAATCTCATCCGGAGTCACCTAGTGCAG | 18800 fluorescence intensity (a.u.)
AGATAAATGGAGTAATGAGGCTGACATGTGGCCTACATGGCGGAGTCACCTAGTGCAG | 5550 fluorescence intensity (a.u.)
TTTAGATTTGACATGAGTGCTAGTATTTATGGCTAATTATCGGAGTCACCTAGTGCAG | 17200 fluorescence intensity (a.u.)
TATTGATTATTCTTCTATAAACAAACACCAGGTCTTCGGGCGGAGTCACCTAGTGCAG | 23900 fluorescence intensity (a.u.)
TTTCAATCCGTTAAAATTTAATGTTTCAGACACGATAGCACGGAGTCACCTAGTGCAG | 7710 fluorescence intensity (a.u.)
TCAATCAATCTGACCAATTCAGTCAAGTCCCAATTCCCAACGGAGTCACCTAGTGCAG | 9830 fluorescence intensity (a.u.)
AATAAATGACAAGGAAAAGAGATTAAAGAACAAACAGTCCCGGAGTCACCTAGTGCAG | 3740 fluorescence intensity (a.u.)
TTGATAAATTTGGTGTTAAATTTATAGTTTTATGAGAAAACGGAGTCACCTAGTGCAG | 14400 fluorescence intensity (a.u.)
TTTAAAATTCTACAATTTATAAATTGCTCACCGCAGCAAACGGAGTCACCTAGTGCAG | 3700 fluorescence intensity (a.u.)
TGCTGATGATGAGTTCTTCTGAAGCAACATGCCGACATGCCGGAGTCACCTAGTGCAG | 5230 fluorescence intensity (a.u.)
ACGTCCCCAATCACACCGCCAAACCACCAAACTCGAATTTCGGAGTCACCTAGTGCAG | 7940 fluorescence intensity (a.u.)
AATAATTAATTAATCATAGCTTGCAACTGCATATGTAGGGCGGAGTCACCTAGTGCAG | 56700 fluorescence intensity (a.u.)

Sequence | binding signal
AATAATTACTTCCTCCCTTTCCCAAAATCCACCCACCCTTCGGAGTCACCTAGTGCAG | 18100 fluorescence intensity (a.u.)
AACAATTATCCACAAATGGACAGACATCATCATCGGTCACCGGAGTCACCTAGTGCAG | 5760 fluorescence intensity (a.u.)
ATGTAATAACAATAAAATTATTATTTATAATTTTGTTTCACGGAGTCACCTAGTGCAG | 11200 fluorescence intensity (a.u.)
ATAAACCACTAAATTTAGTAAACGAGACAATAATATGTCACGGAGTCACCTAGTGCAG | 5030 fluorescence intensity (a.u.)
AATTTAGATTATTTACCACCTAATTTGCGTGCCTCAACTTCGGAGTCACCTAGTGCAG | 15200 fluorescence intensity (a.u.)
CGGGCCGCCGTGATTGGTGCCGGTTCGAGGCGCCGTGATTCGGAGTCACCTAGTGCAG | 12400 fluorescence intensity (a.u.)
TAGGTGATGATTTCGTGTTTTGGTCCTGTATTTATGTTGGCGGAGTCACCTAGTGCAG | 4820 fluorescence intensity (a.u.)
GGGGATTAGGAGTTTATTGATGATGAGATTAAGATAGAAACGGAGTCACCTAGTGCAG | 12500 fluorescence intensity (a.u.)
TGCTAATGATGGATTAATTAGGCTTAATAAATTCGTCTCGCGGAGTCACCTAGTGCAG | 54700 fluorescence intensity (a.u.)
CAGGCTGATTGGTTCTATGCCCCTGTTTACACTACTTGTGCGGAGTCACCTAGTGCAG | 38500 fluorescence intensity (a.u.)
CACCAATAAAATCAATCATTATTTGAAGACTGGTTATATACGGAGTCACCTAGTGCAG | 18600 fluorescence intensity (a.u.)
GATAATTAAGTTGGATATTAGGTCCATCGGCCAGAAATCTCGGAGTCACCTAGTGCAG | 7420 fluorescence intensity (a.u.)
TAGGTGGACTTAATTTGTTGTAACCATTGGTAGGTGGACCCGGAGTCACCTAGTGCAG | 5000 fluorescence intensity (a.u.)
GATAGATAATTAGCCATATAATAATGAATATCTGAGAAACCGGAGTCACCTAGTGCAG | 17100 fluorescence intensity (a.u.)
CAGGTAATTAGGAGGGAATTCCTCCTTTACTTCGTCTAAACGGAGTCACCTAGTGCAG | 14100 fluorescence intensity (a.u.)
AGCTGACTGGACCGCCACGTATGATCCAAATTCGCACTGACGGAGTCACCTAGTGCAG | 3930 fluorescence intensity (a.u.)
TTAAACATTTGACGAACAATTAGTATAATATAATTTGAATCGGAGTCACCTAGTGCAG | 5350 fluorescence intensity (a.u.)
GTAACAATTATTAAAATTCTTAATAAAAGTGCACTGGCATCGGAGTCACCTAGTGCAG | 7060 fluorescence intensity (a.u.)
CTACAAAATTAAGCTGATAGCAACATCATTCACACATGGACGGAGTCACCTAGTGCAG | 4120 fluorescence intensity (a.u.)
CCAATCTACAAATCATTGCAACCATCTCTCTCGTACTGTTCGGAGTCACCTAGTGCAG | 3610 fluorescence intensity (a.u.)
TTCTAGATTATAATTAAGGTTTTAGCTTCTTATTTGGTATCGGAGTCACCTAGTGCAG | 33300 fluorescence intensity (a.u.)

Sequence | binding signal
TCCAAACCAAATTGGGACCTTGTATGCACTGGTGATACGTCGGAGTCACCTAGTGCAG | 6180 fluorescence intensity (a.u.)
AATCGGCGCAAATTGCTAATCATAATGTAATATACTCCCTCGGAGTCACCTAGTGCAG | 18200 fluorescence intensity (a.u.)
GGCCAAATCTATTAAGATTGAGAGAAAACCAGTACAGGTGCGGAGTCACCTAGTGCAG | 7220 fluorescence intensity (a.u.)
CTTACAGTCAAGACAGATAATATATGAGGCCCTTGGCTGGCGGAGTCACCTAGTGCAG | 3520 fluorescence intensity (a.u.)
TAAAGCACAAAACTCTATATAATTGACCATTAAATTGTTGCGGAGTCACCTAGTGCAG | 4660 fluorescence intensity (a.u.)
CTAAAATCACCCCTCGTGTGATAGATTAACCGAACAATGCCGGAGTCACCTAGTGCAG | 7580 fluorescence intensity (a.u.)
CATAGATTTGTATATGGTTAGATTTGCTTCAAGATTCATGCGGAGTCACCTAGTGCAG | 6850 fluorescence intensity (a.u.)
TCAGATTAAATAAAATAGATGATCTATATTAAGAATGCTGCGGAGTCACCTAGTGCAG | 13100 fluorescence intensity (a.u.)
CATCCTAATTCCGATTGGGATTAATTTCGACAGCCCTGAACGGAGTCACCTAGTGCAG | 7340 fluorescence intensity (a.u.)
ATCTCTGCTTAATTAATTTGTCCTCACTGAATTTGATTCTCGGAGTCACCTAGTGCAG | 20000 fluorescence intensity (a.u.)
GATACTTGATTAAACCGAGGCGACGGGCGTGGAGCATGAGCGGAGTCACCTAGTGCAG | 14200 fluorescence intensity (a.u.)
GTTGATTACGTTGAGGTTGGTGGCGGAGAAGGCAGGGGCGCGGAGTCACCTAGTGCAG | 19800 fluorescence intensity (a.u.)
CTGACTGAAAATTACCTCATCAGTGCTGAGTCTAGATCATCGGAGTCACCTAGTGCAG | 24800 fluorescence intensity (a.u.)
AACATGATTAATATTTTATGCGTGACTTGTCTTTTAAATTCGGAGTCACCTAGTGCAG | 7820 fluorescence intensity (a.u.)
GTTAAATTTGAACTTGTATTTCATGAAACGATATATCATACGGAGTCACCTAGTGCAG | 3920 fluorescence intensity (a.u.)
ACAGTAATTATCCGCTAACCATGGATTAATATACCTCGTTCGGAGTCACCTAGTGCAG | 32200 fluorescence intensity (a.u.)
ACAATCAATCAAAGTTGTGTTTTGAAGACCGTGTCGTTATCGGAGTCACCTAGTGCAG | 26400 fluorescence intensity (a.u.)
AGAAATTTGTCAACAGATTTATAGCAAAATCGATACCGAACGGAGTCACCTAGTGCAG | 9390 fluorescence intensity (a.u.)
CGCTCAGTTAGGGACTAATTACTTAATTAGGAATTAATTACGGAGTCACCTAGTGCAG | 10700 fluorescence intensity (a.u.)
ACAAATTATCTTATTACCGTATTACGAGTCAGTCTTTGAACGGAGTCACCTAGTGCAG | 16200 fluorescence intensity (a.u.)
TATGTAATCTAAATTGTCATGCCCAATCTGATCTACTTCACGGAGTCACCTAGTGCAG | 6860 fluorescence intensity (a.u.)

Sequence | binding signal
ATGGATTAATTAGGCTTAATAAATTCGTGTCACAGTTTACCGGAGTCACCTAGTGCAG | 34600 fluorescence intensity (a.u.)
CGATTGATTCCCTTCCTGATCTATGCTCCTGACCACTACTCGGAGTCACCTAGTGCAG | 6020 fluorescence intensity (a.u.)
TTAAATTAGCAGAGGGAGATCTCGACTGGTCTCTCTGAGTCGGAGTCACCTAGTGCAG | 11100 fluorescence intensity (a.u.)
ACGTTAAAATTAAAAGTTTAATTGAAATTGAAATGATGTGCGGAGTCACCTAGTGCAG | 23600 fluorescence intensity (a.u.)
ATAATTGGTAAAGATGGATTCAAAATATTATTAATAATTGCGGAGTCACCTAGTGCAG | 26200 fluorescence intensity (a.u.)
AATAGTACTAATTAATTTCATGCTACACCAAACTTTTCTCCGGAGTCACCTAGTGCAG | 12400 fluorescence intensity (a.u.)
TTAATTGATTGAATCACATCCTTCCGGATTGTTTTGATCCCGGAGTCACCTAGTGCAG | 40800 fluorescence intensity (a.u.)
AATCAATCAGTGCGATTGCTGATGCATATAAAGAAGGGCTCGGAGTCACCTAGTGCAG | 42800 fluorescence intensity (a.u.)
TCTGTATAGATAGAGAAAATTAACTAGGATAGGGACGGATCGGAGTCACCTAGTGCAG | 4540 fluorescence intensity (a.u.)
CTAGATGTAATTACTCTTTCCGTCCCAAAATATAATAACTCGGAGTCACCTAGTGCAG | 8360 fluorescence intensity (a.u.)
AACCACTAAATTATTTATAGATGACAGGATTACAGTATGTCGGAGTCACCTAGTGCAG | 9900 fluorescence intensity (a.u.)
AGATTGATCAGTGGAGCTTAATTTGCAAATTAACCAACATCGGAGTCACCTAGTGCAG | 19300 fluorescence intensity (a.u.)
TTGAAAGCCTTAATTAGACACCCTTAATGCTCCAAGTATGCGGAGTCACCTAGTGCAG | 6260 fluorescence intensity (a.u.)
CAAGATGGGTCGGGTTGGGTGGGGTTACTCGCACTAGCACCGGAGTCACCTAGTGCAG | 3150 fluorescence intensity (a.u.)
CATCGTCATGACATGGAGTAATTGCATATGCAAACATTATCGGAGTCACCTAGTGCAG | 4860 fluorescence intensity (a.u.)
TCCACAGATTGAGGAATCCGAGCAACAAATATCCTAGTAGCGGAGTCACCTAGTGCAG | 11900 fluorescence intensity (a.u.)
ACAAGTAATTTAAAACGGAAGTAGTATAGCAGTGATGTTTCGGAGTCACCTAGTGCAG | 4460 fluorescence intensity (a.u.)
CATGATTAGCCATAAGTGCTACAGTAACCCACATGTGCTACGGAGTCACCTAGTGCAG | 34300 fluorescence intensity (a.u.)
CACCATTGCATGATTGCATCTGCATCACTGCATGCCAACGCGGAGTCACCTAGTGCAG | 5680 fluorescence intensity (a.u.)
ACATAGATTAGTAAGTGAAACAAAACATAGACGGCAAGCCCGGAGTCACCTAGTGCAG | 11700 fluorescence intensity (a.u.)
CCTAATGACGTCATCAAGCGACGTGCACTCTAAACACCATCGGAGTCACCTAGTGCAG | 10100 fluorescence intensity (a.u.)

Reference: publication PMC7819943, “Rice protein-binding microarrays: a tool to detect cis-acting elements near promoter regions in rice”
